Drawing on PubChem BioAssay AID1745853 (National Center for Advancing Translational Sciences (NCATS), 2022), this text covers activity change, negative = inhibition for 31 molecules.

This is one part of the list. Shown are side measurements of this screen, not its main read-out; they come without a call.

Common to all, as to test: Primary Screen for Target Class Profiling of Small Molecule Inhibitors of Methyltransferases
Assay [1] deals with Glycine N-methyltransferase (Homo sapiens) (UniProt Q14749). The conditions noted are these: purified enzyme, MTase-Glo SAH luminescence; measured here: GNMT inhibition; at 40 µM; stronger effect = lower value. The essentials: (§1)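 Each enzyme was reacted with SAM and its substrate, with compounds tested once at 40 uM; SAH formed was read by MTase-Glo luminescence.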
The target of assay [2] is Guanidinoacetate N-methyltransferase (Homo sapiens) (UniProt Q14353). The conditions noted are these: purified enzyme, MTase-Glo SAH luminescence; measured here: GAMT inhibition; at 40 µM; stronger effect = lower value. The method in brief: as §1
Assay [3] deals with Histamine N-methyltransferase (Homo sapiens) (UniProt P50135). The conditions noted are these: purified enzyme, MTase-Glo SAH luminescence; measured here: HNMT inhibition; at 40 µM; stronger effect = lower value. The method in brief: as §1
Assay [4] has as its target Nicotinamide N-methyltransferase (Homo sapiens) (UniProt P40261). The conditions noted are these: purified enzyme, MTase-Glo SAH luminescence; measured here: NNMT inhibition; at 40 µM; stronger effect = lower value. The method in brief:
as §1

For assay [5], the target named is Phenylethanolamine N-methyltransferase (Homo sapiens) (UniProt P11086). The conditions noted are these: purified enzyme, MTase-Glo SAH luminescence; measured here: PNMT inhibition; at 40 µM; stronger effect = lower value. The method in brief:
as §1
% is set by controls: 0 for no effect and ±100 for the full control effect.

Turning to `O=C(Oc1ccc([N+](=O)[O-])cc1)N1CCN(Cc2cccc(Oc3ccccc3)c2)CC1`, the activity change, negative = inhibition in assay [1] is -3.21%; in assay [2] it was -7.41%; in assay [3] it was 10.1%; in assay [4], -23.1%; in assay [5], -8.93%.
For the molecule `Cn1nc(-c2cccs2)cc1[C@H]1CN2CC[C@H]1C[C@@H]2CNS(C)(=O)=O`, the activity change, negative = inhibition in assay [1] is -4.03%; in assay [2], 0.804%; in assay [3] it was -2.64%; in assay [4] it was -1.46%; in assay [5], 1.38%.
Taken in the same sequence, the figures for `Cc1cccc(C2c3cccn3-c3ccccc3CN2C(=O)NC(C)C)c1` (stereo not given) were 10.4%, 0.886%, 6.77%, 1.81% and 6.96%.
Turning to `CN1C(=O)[C@]23CC4C(C)(C)[C@@]5(C[C@@]41CN2CC[C@@]3(C)O)C(=O)Nc1c5ccc2c1OC=CC(C)(C)O2` (stereo not given in full), the activity change, negative = inhibition was 4.07% in assay [1]; 6.93% in assay [2]; 7.46% in assay [3]; -9.12% in assay [4]; 6.58% in assay [5].
Take `CN(C(=O)C(c1ccccc1)c1ccccc1)[C@H](CN1CC[C@H](O)C1)c1ccccc1`: the activity change, negative = inhibition in assay [1] was -5.14%; in assay [2], 2.29%; in assay [3], 3.28%; in assay [4] it was -13.9%; in assay [5] it was -2.9%.
As to `COc1ccc(C(CN(C)C)C2(O)CCCCC2)cc1` (stereo not given), the activity change, negative = inhibition in assay [1] is 4.62%; in assay [2], 10.4%; in assay [3], -1.26%; in assay [4], -1.51%; in assay [5], 9.73%.
For `Cc1noc(-c2ccc(N3CC4CC(C3)c3cccc(=O)n3C4)nc2)n1` (stereo not given) the same measures were -4.03%, -5.25%, 0.199%, -4.55% and -1.3%.
Take `CN1[C@H]2C[C@H](OC(=O)[C@H](CO)c3ccccc3)C[C@@H]1[C@@H](O)C2`: the activity change, negative = inhibition is 3.32% in assay [1]; 0.387% in assay [2]; 10.2% in assay [3]; -7.61% in assay [4]; 4.37% in assay [5].
In the case of `CN1C(=O)N(c2ccc(C#N)c(C(F)(F)F)c2)C(=O)[C@@]1(CO)c1ccccc1`, the activity change, negative = inhibition was 6.4% in assay [1]; 9.71% in assay [2]; 6.62% in assay [3]; -3.97% in assay [4]; 4.55% in assay [5].
As for `O=C(NCc1ccccc1)N1Cc2ccccc2-n2cccc2C1c1cccc(Cl)c1` (stereo not given), the activity change, negative = inhibition in assay [1] was 12.5%; in assay [2], 0%; in assay [3], 7.9%; in assay [4], -2.89%; in assay [5], 6.3%.
In the case of `O=C(Nc1cccc(C(F)(F)F)c1)N1Cc2ccccc2-n2cccc2C1c1cccs1` (stereo not given), the activity change, negative = inhibition is 5.56% in assay [1]; 0% in assay [2]; -3.97% in assay [3]; 1.3% in assay [4]; 3.01% in assay [5].
`O=C(Nc1ccc(F)cc1)N1Cc2ccccc2-n2cccc2C1c1ccccc1` (stereo not given): the activity change, negative = inhibition in assay [1] was 7.31%; in assay [2] it was 1.68%; in assay [3], 5.13%; in assay [4] it was -0.174%; in assay [5], 7.18%.
As to `CS[C@]1(CO)C(=O)N2[C@H]3C(=CC=C[C@@H]3O)C[C@@]2(SC)C(=O)N1C`, the activity change, negative = inhibition in assay [1] was 0%; in assay [2], 8.52%; in assay [3], 10.8%; in assay [4] it was -4.19%; in assay [5], 5.6%.
With `COC(=O)CCNC(=O)N1Cc2ccccc2-n2cccc2C1c1ccc(C(C)C)cc1` (stereo not given), the activity change, negative = inhibition is -6.74% in assay [1]; 0% in assay [2]; 4.77% in assay [3]; 0.218% in assay [4]; 3.99% in assay [5].
As for `CC(C)C1c2cccn2-c2ccccc2CN1C(=O)NCc1ccccc1` (stereo not given), the activity change, negative = inhibition is 1.55% in assay [1]; 0% in assay [2]; 2.98% in assay [3]; -2.17% in assay [4]; 5.08% in assay [5].
For `Cc1ccccc1NC(=O)N1Cc2ccccc2-n2cccc2C1C(C)C` (stereo not given) the same measures were -0.291%, 0%, -1.8%, 3.4% and 5.36%.
For `CCOc1ccccc1NC(=O)N1Cc2ccccc2-n2cccc2C1C(C)C` (stereo not given), the activity change, negative = inhibition in assay [1] is -7.63%; in assay [2], 4.66%; in assay [3], 2.31%; in assay [4] it was -4.6%; in assay [5], 2.02%.
As for `CCOc1ccccc1NC(=O)N1Cc2ccccc2-n2cccc2C1c1ccc(CC)cc1` (stereo not given), the activity change, negative = inhibition is 10.2% in assay [1]; 2.51% in assay [2]; 4% in assay [3]; -0.007% in assay [4]; 6.91% in assay [5].
Taken in the same sequence, the figures for `O=c1ccc(-c2ccccc2F)c2n1C[C@H]1C[C@@H]2CN(Cc2ccc(CO)o2)C1` were -14.1%, -8.11%, -5.4%, -16.1% and -4.85%.
In the case of `NNC(=O)c1nn(Cc2ccc(Cl)cc2Cl)c2ccccc12`, the activity change, negative = inhibition in assay [1] was -15.7%; in assay [2], -3.13%; in assay [3], -10.6%; in assay [4], -46%; in assay [5], -25.3%.
As for `C=C[C@H]1CN2CC[C@H]1C[C@@H]2CNC(=O)N1CCOCC1`, the activity change, negative = inhibition in assay [1] is -6.17%; in assay [2] it was -12.7%; in assay [3], -8.49%; in assay [4], -17.8%; in assay [5], -14.6%.
`CCCNC(=O)N1Cc2ccccc2-n2cccc2C1c1cccc(Cl)c1` (stereo not given): the activity change, negative = inhibition was 8.51% in assay [1]; 2.66% in assay [2]; 4.17% in assay [3]; -0.093% in assay [4]; 6.13% in assay [5].
Taken in the same sequence, the figures for `COc1ccc(-c2ccc3n(c2=O)C[C@H]2C[C@@H]3CN(S(C)(=O)=O)C2)cc1` were -1.91%, 0.57%, 1.28%, -1.21% and 2.97%.
For `c1ccc(C2CC2)c(OCC2=NCCN2)c1` the same measures were -0.913%, 10.7%, 2.22%, -17.3% and 3.21%.
For the molecule `CCc1ccc(C2c3cccn3-c3ccccc3CN2C(=O)Nc2ccccc2C)cc1` (stereo not given), the activity change, negative = inhibition in assay [1] worked out at 12.9%; in assay [2], 3.08%; in assay [3], 6.98%; in assay [4], 0.545%; in assay [5] it was 6.9%.
Consider `CCCNC(=O)N1Cc2ccccc2-n2cccc2C1c1ccc(C)cc1` (stereo not given), for which the activity change, negative = inhibition was -1.45% in assay [1]; 0.32% in assay [2]; 2.09% in assay [3]; -2.08% in assay [4]; 4.64% in assay [5].
Taken in the same sequence, the figures for `COCCO[C@H]1COCCN(C2CCOCC2)C1` were -3.54%, -2.82%, -0.367%, -1.66% and -0.109%.
On to `CN1C(=O)c2ccccc2NC(=O)C1Cc1ccccc1` (stereo not given), for which the activity change, negative = inhibition is 3.36% in assay [1]; 2.65% in assay [2]; 9.03% in assay [3]; -13.2% in assay [4]; -1.37% in assay [5].
Turning to `Cc1ccc(C)c(NC(=O)N2Cc3ccccc3-n3cccc3C2c2ccc(Cl)cc2)c1` (stereo not given), the activity change, negative = inhibition stood at 1.93% in assay [1]; 0% in assay [2]; 0.374% in assay [3]; 5.41% in assay [4]; 6.17% in assay [5].
Taken in the same sequence, the figures for `NCC(CP(=O)(O)O)c1ccc(Cl)cc1` (stereo not given) were 12.5%, 12.2%, 14.6%, -5.81% and 0.911%.
As for `CC(=O)OC[C@]12C[C@H](O)C(C)=C[C@H]1O[C@@H]1[C@H](O)[C@@H](O)[C@@]2(C)[C@]12CO2`, the activity change, negative = inhibition in assay [1] is 0.5%; in assay [2], 4.61%; in assay [3], 3.68%; in assay [4], -9.59%; in assay [5], 0.426%.
